Reference: paper PMC12136788
The list shows a part of the results.

T1: UNK ZnF1-3 (human, UniProt Q9C0B0 31-174)
T1 sequence: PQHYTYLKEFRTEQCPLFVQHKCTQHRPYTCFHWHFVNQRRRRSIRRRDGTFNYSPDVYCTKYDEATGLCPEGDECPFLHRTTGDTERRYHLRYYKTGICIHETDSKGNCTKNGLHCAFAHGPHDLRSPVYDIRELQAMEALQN

B1: 32537986_32538106_146_5pUTR_ENSMUSG00000029765_ENSMUST00000115096|mouse|control|control (ssRNA)
RNA: GGGAGUUCUACAGUCCGACGAUCGCGCGGAGCUGCGGUGGUAGCAGCGACGGCGGCGGCUAGCGCUGCGGCGGCCAAGAGCGCGGCCGUAGUCCAAGCCGAGCCUCCCAGGCGCGUCCCCGGCCCCCCGGGCGGGCUGCUCGCCAACAGAGGAUUGAGCAUCA
B2: 234363454_234365599_2382_CDS_ENSG00000077044_ENST00000264057|human|control|control (ssRNA)
RNA: GGGAGUUCUACAGUCCGACGAUCCAGCAACUCUUUGGUUCCAAGAACUCCAUACCACAUCAUGUUCUUGGUUCGGCUCCUGCACUUCUCUGGGUGCUCAUCGCGCUUGUUGUUAAAGUCCAGGGAUAUCUUCGCAUCCAGGCCCAACAGAGGAUUGAGCAUCA
B3: chr9:96246283:96246284:-_ENSMUSG00000032412_ENSMUST00000034983|mus_hu|FALSE|FALSE (ssRNA)
RNA: GGGAGUUCUACAGUCCGACGAUCCUGAAGCAUAACCCACAUCGUGAAUGAGAAGAGUGCAGCCAGGAACCCAUAAAAAACUAGGUAGAAGAGCAAGAUCAAACCCCAGCUCUUGGCGGUGCGCCCCAGGAAUUCUCCGGUGGUCAACAGAGGAUUGAGCAUCA
B4: chr15:91426070:91426071:+_ENSG00000140564_ENST00000268171|hu_hu|FALSE|FALSE (ssRNA)
RNA: GGGAGUUCUACAGUCCGACGAUCGGCAGCCAGGGAGGAGCAGGGCGGACGGUGGGUGUGAGAACGUGGGUAGUCCAGCUGCUACCCCCAUUAAAAAUACAAAAACAAAUCAUCAGCAUCUAAAGUGAAAUAAUCACAAAGUGACAACAGAGGAUUGAGCAUCA
B5: chr3:8560387:8560388:+_ENSMUSG00000027500_ENSMUST00000029002|perfect_dup|FALSE|FALSE (ssRNA)
RNA: GGGAGUUCUACAGUCCGACGAUCCAUACAUUCCCCAUCCUGAUAUCGCAUGAUCCAUUAUAAUAUAGGCAGGGGGAUUUACUAUUGGUGGGGCGUGCCAGACCCUCCCUUGCUUCAGCCAGACAGUUCAACCUGGAGUUCCUUCAACAGAGGAUUGAGCAUCA
B6: 151885107_151885811_1423_3pUTR_ENSMUSG00000028034_ENSMUST00000166984|mouse|control|control (ssRNA)
RNA: GGGAGUUCUACAGUCCGACGAUCCUAAAGGAUUUACUGGGCCCCCAAUCUUCUCUUCUAUGAGUUGUCGAGCAUAGUCUAUUUGCUGUGGAGUGCCCCGAAUUGUAAAUAACUUCAUAUUGGGAUCUGCAUUAGGUGGAGGGCCAACAGAGGAUUGAGCAUCA
B7: chr6:112015657:112015658:-_ENSG00000010810_ENST00000368667|hu_hu|FALSE|FALSE (ssRNA)
RNA: GGGAGUUCUACAGUCCGACGAUCAGCAAUCUUGCAUAUGAGUCCAUUCCCCACUAGAAUGUUUGCUGAUCGCAGAUCUCUAUGGAUAUAAUUCAUGCGCUCGAUGUAAGCCAUUCCUGCAGCCACCUGUGCUGCCAUGUCCACCAACAGAGGAUUGAGCAUCA
B8: 49545228_49545348_462_3pUTR_ENSG00000101126_ENST00000396029|human|control|control (ssRNA)
RNA: GGGAGUUCUACAGUCCGACGAUCACGGAGUCCAGAUCCUCAAAAUGGUAGUACAGGGCAUAACCACUAGGCCACCUAUCAGUUCAGUACAAAAAGUACAACCCUGCGCAUCAUGGUGUAAAAGCUGGGGCCUAGGUUUCGCAUCAACAGAGGAUUGAGCAUCA
B9: chr7:106494041:106494042:-_ENSMUSG00000070436_ENSMUST00000094154|mus_hu|FALSE|FALSE (ssRNA)
RNA: GGGAGUUCUACAGUCCGACGAUCCUUGGAUUGAUAGCAACAAAGGCUCAUGUUCCCCCUUCCCUCCCUAUCUUUGAAGAACUAAAAAAGGAAGAAACAAAACAAAAAGUUCAUCCCCACAACGCCAGACACGAUGCUUCUUGACAACAGAGGAUUGAGCAUCA
B10: 120360295_120360415_1526_CDS_ENSMUSG00000027288_ENSMUST00000055241|mouse|control|control (ssRNA)
RNA: GGGAGUUCUACAGUCCGACGAUCAGGGGUUGGAAGUGGAAGGAGUGGGGAUUUCAGUAAUGGAAUCUUAUUUGACUUCUGAUGUGGCUCAGAUUGCUCGGUAAUGGGGCAAGCUCUUGGCACCUCACAGAAAGCAGUGCCAUCCAACAGAGGAUUGAGCAUCA
B11: chr2:37458628:37458629:-_ENSMUSG00000026915_ENSMUST00000072186|mus_mus|motif|central (ssRNA)
RNA: GGGAGUUCUACAGUCCGACGAUCCUUAUACUGAAGCCCGGGCCUGAUCUGAUUUAAUCUCAUUAGUGCAUUCAUAAGGUCGGUUGCUUUACUAUCUAGAAUUUUCCUUAAGUUUCGUUUCAUCUUCUUGUUGGGAUCUUUAUCCAACAGAGGAUUGAGCAUCA
B12: chr5:38546887:38546888:-_ENSMUSG00000029126_ENSMUST00000031009|mus_hu|FALSE|FALSE (ssRNA)
RNA: GGGAGUUCUACAGUCCGACGAUCGACCAACACGGAGACCUUAAACCUCUCGGUGACACCCUCCGUGAUGCUGACGGUGAACUCAGCAAUUUGGGGAGGACGUGCUUUCCCUUUCUUGCGGUCAGGUUCAUACUCGGUCUUAGUCAACAGAGGAUUGAGCAUCA
B13: chr5:135103553:135103554:-_ENSMUSG00000040731_ENSMUST00000036125|perfect_dup|motif|central (ssRNA)
RNA: GGGAGUUCUACAGUCCGACGAUCGUCUUUGUCUCUGACUAGCCGUACACUCCUUAUGCUGAGAUCCUUAAAGAUAGCAUCGGUGUCGCCCUGAACCGUAUUGAAAGGUAGAUUUCCUACGUAUGCUGUGUAGGGGGGCUCUGUCAACAGAGGAUUGAGCAUCA
B14: chr14:89338683:89338684:+_ENSG00000165533_ENST00000346301|hu_hu|hu_hu_hu_mus_False|58_108 (ssRNA)
RNA: GGGAGUUCUACAGUCCGACGAUCGUGGUUGUUGUUGACCAGGGCCAGCCUGAAGCAUUGGUGGGCCAAGUUUGUAUCUCCUAUUCCCACAGCUAUGUGCCCCAGGUUGUACCAGACAUCAGCUGCCUCUUCUUCAUUUUCAGCCAACAGAGGAUUGAGCAUCA

What follows are binders tested against T1, UNK ZnF1-3 (assay: nsRBNS (natural sequence RNA bind-n-seq); RBNS binding buffer (assumed for nsRBNS): 25 mM Tris pH 7.5, 150 mM KCl, 3 mM MgCl2, 0.01% Triton X-100, 500 ug/ml BSA, 20 U/ml SUPERase-In, 4 C; UNK is unkempt and MSI1 is Musashi-1; names of the RNAs are library labels; protein concentration not given here; high values mean tight binding).

Row | Binder | binding signal [enrichment R]
1 | B1 | 0.647
2 | B2 | 0.751
3 | B3 | 1.6
4 | B4 | 1.67
5 | B5 | 1.63
6 | B6 | 1.34
7 | B7 | 1.12
8 | B8 | 1.08
9 | B9 | 1.36
10 | B10 | 1.07
11 | B11 | 0.485
12 | B12 | 0.499
13 | B13 | 0.834
14 | B14 | 0.492
